The campaign covered roughly 16,000 compounds. About 120 (0.75%) were called active. Another 4% or so got no clear call; they are omitted. Calls come from the whole dose curve; as a rule, active = well fitted inhibition curve with a large enough effect; inconclusive = small, poorly fitted or top-dose-only effect; inactive = no such curve, though single readings can be large or run the other way. The list shows a part of the results.
Target: Rap guanine nucleotide exchange factor 3 (Homo sapiens) (UniProt O95398)
Assay: Validation qHTS for antagonist of cAMP-regulated guanine nucleotide exchange factor 3 (EPAC1); note: nearly all actives have a fitted effect of over 75% in size
Conditions: EPAC1 Rap1B-BODIPY-GDP exchange, fluorescence; series mostly up to 150 µM; activity change, negative = inhibition: at the top concentration
From the text: Assay Provider (PI): Xiaodong Cheng Ph.D.
The University of Texas Medical Branch, […], TX
In multi-cellular eukaryotic organisms, the effects of cAMP are transduced by two ubiquitously-expressed intracellular cAMP receptors, the classic protein kinase A/cAMP-dependent protein kinase (PKA/cAPK) and the more recently discovered exchange protein directly activated by cAMP/cAMP-regulated guanine nucleotide exchange factor (EPAC/cAMP-GEF). Both PKA and EPAC are ubiquitously expressed in all tissues, and an increase in intracellular cAMP levels will lead to the activation of both PKA and EPAC. Therefore, careful dissections of the individual role and relative contribution of EPAC and PKA within the overall cAMP signaling in various model systems are critical for further elucidating the mechanism of cAMP signaling. To date no EPAC-specific antagonists and agonist, as well as isoform-specific agonists have been reported, and developing EPAC-specific pharmacological probes to determine the physiological functions that EPAC play in the overall cAMP-mediated signaling remains a major challenge within the research field. Furthermore, identified regulators of EPAC may lead to new mechanism-based therapeutic strategies specifically targeting the EPAC / cAMP-signaling components as EPAC has been implicated to play important roles in major human pathological conditions such as diabetes, heart disease, and cancer.
This qHTS will be used to screen the Molecular Libraries Small Molecule Repository (MLSMR) as a concentration-titration series using the NCGC unique quantitative screening (qHTS) platform to find activators for EPAC1. In addition, this assay will also be used as a counterscreen for the EPAC2 qHTS. This fluorescent based assay is developed and validated for EPAC1 that measures exchange using EPAC effector Rap1 complex with BODIPY-GDP, a GDP analog with a tethered fluorophores. Activators are identified by monitoring the change in fluorescence signal as the exchanged free BODIPY-GDP has a reduced fluorescence compared to Rap1-bound BODIPY-GDP. Increase in signal (activation) is the desired outcome for the EPAC1 agonist while no activity in this assay is desired for the EPAC2 agonist counterscreen.
[1] de Rooij, J., Zwartkruis, F. J., Verheijen, M. H., Cool, R. H., Nijman, S. M., Wittinghofer, A., and Bos, J.L. (1998) Nature 396, 474-477.
Briefly, three uL of reagents (100 nM EPAC1, 250 nM RAP1B-BODIPY-GDP, 50 uM GDP) were dispensed into a 1536-well Greiner black solid-bottom medium binding assay plate. Controls and test compounds (23 nL) were transferred to the plate via a Kalypsys pin tool equipped with a 1536-pin array. The plates were centrifuged at 1,000 rpm for 15 seconds followed by 5 minute incubation at room temperature. The assay plates were read at 5 minute intervals for 30 minutes in the ViewLux plate reader using 480nm excitation and 540nm emission filters. The results were normalized to the […] positive control ATA and DMSO.
Potency is the fitted concentration of half-maximal effect.

Chain of UniProt O95398 (O95398 whole entry, looked up): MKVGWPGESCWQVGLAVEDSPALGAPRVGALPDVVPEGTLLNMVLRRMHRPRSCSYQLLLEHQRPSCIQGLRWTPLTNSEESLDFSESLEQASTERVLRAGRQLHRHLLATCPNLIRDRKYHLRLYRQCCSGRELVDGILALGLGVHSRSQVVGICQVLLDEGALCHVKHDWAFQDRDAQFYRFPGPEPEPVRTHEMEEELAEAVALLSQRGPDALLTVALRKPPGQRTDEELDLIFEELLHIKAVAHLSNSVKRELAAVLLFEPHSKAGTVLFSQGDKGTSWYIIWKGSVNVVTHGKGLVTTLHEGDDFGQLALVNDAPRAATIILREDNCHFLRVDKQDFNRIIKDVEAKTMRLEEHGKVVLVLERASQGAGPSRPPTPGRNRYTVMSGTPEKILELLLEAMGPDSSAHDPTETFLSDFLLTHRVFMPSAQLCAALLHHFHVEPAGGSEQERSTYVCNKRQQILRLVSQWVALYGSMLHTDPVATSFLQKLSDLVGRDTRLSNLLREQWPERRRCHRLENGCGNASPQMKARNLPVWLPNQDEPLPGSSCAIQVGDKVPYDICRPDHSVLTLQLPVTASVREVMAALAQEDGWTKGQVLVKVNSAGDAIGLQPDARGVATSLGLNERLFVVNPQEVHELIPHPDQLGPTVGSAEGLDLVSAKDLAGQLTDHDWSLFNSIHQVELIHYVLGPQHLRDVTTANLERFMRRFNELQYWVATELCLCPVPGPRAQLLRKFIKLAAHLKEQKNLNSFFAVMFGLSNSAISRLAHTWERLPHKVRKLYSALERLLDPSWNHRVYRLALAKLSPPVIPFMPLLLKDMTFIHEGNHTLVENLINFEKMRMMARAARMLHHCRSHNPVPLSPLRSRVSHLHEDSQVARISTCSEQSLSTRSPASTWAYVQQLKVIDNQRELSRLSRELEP

Activity change, negative = inhibition, inactive:
Cc1cc(C)cc(CN2CCc3nnc(C(NS(C)(=O)=O)C(C)C)n3CC2)c1 (stereo unspecified) 9.36%
COC(=O)[C@@H]1CCCN1C(=O)c1c(OC)cc(=O)n2c1CCN(Cc1ccc3cccnc3c1)CC2 10.1%
NCCc1ccn[nH]1 14.7% [at 75.8 µM]
COc1ccc(-c2cn(Cc3ccc(C(=O)c4ccccc4)cc3)nn2)cc1 -6.67%
OC(CN1CCCCC1)c1cc(-c2ccccc2)on1 (stereo unspecified) 11.2%
NC(=O)c1ncn([C@@H]2O[C@H](CO)[C@@H](O)[C@H]2O)c1N 12.4%
CNc1nc(-c2ccoc2)nc2ccccc12 9.86%
C=C1CCC2C(CC2(C)C)C(=C)CC/C1=N/O (stereo unspecified) 6.1%
COc1cc2c(cc1OC)[C@@H](c1ccccc1)CN(C)CC2 15%
CC1=C(/C=C/C(C)=C/C=C/C(C)=C/C(=O)Nc2ccc(O)cc2)C(C)(C)CCC1
CC(C)CN1CCC2(CC1)CCN(S(=O)(=O)c1ccccc1)CC2 19.7%
CC(c1cc2ccccc2s1)N(O)C(N)=O (stereo unspecified) -3.84%
COc1ccccc1CN1CCC2(CC1)CCN(C(=O)c1cc(C(F)(F)F)cc(C(F)(F)F)c1)CC2 5.68%
COc1ccc(-n2c(=O)cnc3cnc(OC)nc32)cc1 11%
CC(=O)N1CCC[C@H]1C(=O)N1CCc2c(cnc(C)c2CNC(=O)/C=C/c2cccs2)C1 -16.5%
COc1cccc(C(=O)NCC2Cc3cccc(-c4ncccn4)c3O2)c1OC (stereo unspecified) 12%
CC[N+](C)(CC)CC(=O)Nc1c(C)cccc1C 16.4%
Cc1cccc(C)c1NC(=O)NC1=CCCN1C 10%
NS(=O)(=O)c1ccc(NC(=O)CCC(=O)O)cc1 7.29%
CCn1c(C)nc2cc(NS(=O)(=O)c3ccccc3)cc(C(=O)N3C[C@@H](C)O[C@@H](C)C3)c21 6.21%
COc1cccc(-c2ccc3ncnc(NC4CCNCC4)c3c2)c1 18.1%
Cn1c(SCC2CCCO2)nnc1C1CCN(Cc2ccco2)CC1 (stereo unspecified) 12.5%
COc1ccc(/C=C/C(=O)N2CCc3c(cnc(C)c3CNS(=O)(=O)c3cccs3)C2)cc1 -0.679%
Cc1nc2cncnc2n(Cc2ccccc2)c1=O 1.36%
CC(=O)Oc1cc(C(C)C)c(OCCN(C)C)cc1C
COCC(=O)N1CCC2(CCCN(C(=O)Nc3cccc(C#N)c3)C2)CC1 10.6%
O=C(O)[C@H]1C(=CCO)O[C@H]2CC(=O)N12 20.4%
C[C@]12CC3CC(N)(C1)C[C@@](C)(C3)C2 1.41%
C[C@@H]1CN(Cc2ccc3c(c2)CN(Cc2ccc(Oc4ncccn4)cc2)CCO3)C[C@H](C)O1 9.82%
COC1=CC(=O)CC(C)C12Oc1c(Cl)c(OC)cc(OC)c1C2=O (stereo unspecified) -8.02%
COc1ccc(C(=O)C[n+]2cccc3cccc(O)c32)cc1 -14.8%
Cc1ccccc1C1(CC(=O)N2CC3(C)CC2CC(C)(C)C3)CC(=O)N(Cc2cccnc2)C1=O (stereo unspecified) -2.13%
OC[C@H]1O[C@@H](OC[C@H]2O[C@@H](O)[C@H](O)[C@@H](O)[C@@H]2O)[C@H](O)[C@@H](O)[C@@H]1O 11.8%
Cc1cccc(CNc2ccnc(-c3ccc(N(C)C)cc3)n2)c1 -6.99%
CN(C)c1ncc2nc(-c3cccc(C#N)c3)c(=O)n(CCC#N)c2n1 9.45%
CCOC(=O)C[C@H]1c2ccccc2S(=O)(=O)N1c1ccccc1 7.26%
CCNc1ncc2nc(-c3cn(C)c4ccccc34)c(=O)n(-c3ccccc3)c2n1 15.6%
COc1cc(CN2CCCC(n3cc(C(=O)N4CCCCC4)nn3)C2)cc(OC)c1OC (stereo unspecified) 16.3%
C=CC(C1=CC(=O)C(OC)=C(OC)C1=O)c1ccccc1 (stereo unspecified) 4.74%
c1ccc2c(CCC3CCNCC3)c[nH]c2c1 -3.21%
CCCS(=O)(=O)NCc1c(C)ncc2c1CCN(C(=O)c1ccc3[nH]c4c(c3c1)CCCC4)C2 3.8%
CCCCCCCCCCCCCCC[C@@H](O)[C@@H](N)CO
C[n+]1cccc(C(=O)[O-])c1 10.2%
COc1cc(C)c(/C=C/C(C)=C/C=C/C(C)=C/C(=O)O)c(C)c1C
CCOC(=O)C[C@H]1c2ccc(C(F)(F)F)cc2S(=O)(=O)N1C(C)(C)C 16.8%
CCCCCCCCCCCCCCCCCC(=O)OCC(O)CO (stereo unspecified) -138%
COC(=O)c1cc(CNC(=O)c2cccc(N(C)C)c2)cc(NC(=O)c2ccccc2Cl)c1 -7.78%
O=c1[nH]c(=O)n([C@H]2C[C@H](O)[C@@H](CO)O2)cc1F
COc1ccccc1CN1CC[C@@]2(CCCN(C(=O)c3cccc(F)c3)C2)C1 7.38%
CCCCCCOC(=O)c1cccnc1 12.2%

Potency, active:
O=C(O)c1cc(O)c2c(c1)[C@H]([C@H]1c3cc(C(=O)O)cc(O)c3C(=O)c3c(O[C@@H]4O[C@H](CO)[C@@H](O)[C@H](O)[C@H]4O)cccc31)c1cccc(O[C@@H]3O[C@H](CO)[C@@H](O)[C@H](O)[C@H]3O)c1C2=O 100 µM

Reference: PubChem BioAssay AID1645882 (National Center for Advancing Translational Sciences (NCATS), 2021)
